Reference: PubChem BioAssay AID485344 (National Center for Advancing Translational Sciences (NCATS), 2010)
Among all 340,000 compounds or so, about 6,900 (2%) were called active. Rule as the data show it: active = inhibition above about 30%; inactive = below that, where a call was filed. Only a part is listed here, and it is no random draw. Entries without a call were filed so in the source.

Biological target: D(2) dopamine receptor (Homo sapiens) (UniProt P14416)
Test: HTS Assay for Allosteric Antagonists of the Human D2 Dopamine Receptor: Primary Screen for Antagonists; also: 0% is about no effect
Conditions: HEK293 TREx D2 cells, calcium flux, dopamine EC80; at 10 µM; stronger effect = higher value
Outline: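 Cells plated overnight at 30 C with tetracycline; no-wash calcium dye, 30–90 min RT; 10 s baseline; compound pinned; 180 s read; EC80 dopamine added; another 180 s read.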

Sequence of UniProt P14416 (P14416 whole entry, looked up): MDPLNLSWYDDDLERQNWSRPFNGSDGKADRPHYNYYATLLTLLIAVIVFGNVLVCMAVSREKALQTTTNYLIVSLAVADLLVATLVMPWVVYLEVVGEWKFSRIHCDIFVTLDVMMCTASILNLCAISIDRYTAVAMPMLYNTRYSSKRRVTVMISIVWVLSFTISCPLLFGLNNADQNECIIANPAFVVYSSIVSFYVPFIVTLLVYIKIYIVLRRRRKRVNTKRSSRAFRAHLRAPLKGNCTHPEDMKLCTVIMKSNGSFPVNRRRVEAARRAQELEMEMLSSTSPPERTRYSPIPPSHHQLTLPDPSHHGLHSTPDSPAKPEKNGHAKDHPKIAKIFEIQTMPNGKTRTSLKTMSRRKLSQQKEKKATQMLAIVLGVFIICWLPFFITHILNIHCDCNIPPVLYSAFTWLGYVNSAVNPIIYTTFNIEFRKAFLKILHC

For `Cc1cccc(NC(=O)c2sc3nc(N4CCOCC4)c4c(c3c2N)CC(C)(C)OC4)c1`, which inhibition is on record?
Its inhibition is -13%.

Which inhibition does the source give for `O=C(CSc1nc2c([nH]c3ccccc32)c(=O)n1-c1ccccc1)Nc1ccc2c(c1)OCCO2` here?
Its inhibition is 4.32%.

Which inhibition does the source give for `Cc1ccc(C(=O)NNc2ncnc3c2cnn3C)cc1` here?
Its inhibition is active: 30.9%.

For `Cc1ccc(C)c2sc(N3CCN(C(=O)C(C)(C)C)CC3)nc12`, which inhibition is on record?
The inhibition was -11.1%.

`CCN(CCCNC(=O)c1cc2c(Cl)nc3ccccc3c2s1)Cc1ccccc1` was tested. Which inhibition did it give?
The inhibition was -9.88%.

For `CCC(=O)c1cc2c(cc1NC(=O)c1ccccc1F)OCCO2`, which inhibition is on record?
Its inhibition is -1.4%.

With `CCN(CC)c1sc(S(=O)(=O)c2ccccc2)nc1S(=O)(=O)c1ccc(C)cc1` as the molecule, how does the inhibition read?
The inhibition was -12.7%.

Which inhibition does the source give for `CC(=O)N1c2ccc(S(=O)(=O)NCCC(=O)Nc3ccc(Br)c(C)c3)cc2CC1C` (stereo not given) here?
Its inhibition is 19.2%.

How did the inhibition turn out when `CC1=C(C(=O)Nc2ccc(C)cc2Cl)C2(CCCCCC2)OC1=O` was run?
The inhibition was -3.37%.

How did the inhibition turn out when `CCOc1ccc(CCNC(=O)c2ccc(-n3c(C)cc4c3CCC(C)C4)cc2)cc1OCC` (stereo not given) was run?
The inhibition was -0.936%.

With `CCCN(C(=O)CCc1nc(-c2ccc(OC)cc2)no1)c1ccccc1F` as the molecule, how does the inhibition read?
Its inhibition is -1.61%.

For `CSc1ncc(C(=O)N2CCN(c3cc(Cl)ccc3C)CC2)c(C)n1`, which inhibition is on record?
The inhibition was 4.53%.

With `COc1cccc2cc(-c3nnc(Nc4c(F)cccc4F)s3)c(=O)oc12` as the molecule, how does the inhibition read?
Its inhibition is -11%.

For `COc1cc(-c2nc(Cn3nnc(C(=O)Nc4ccc(C)cc4C)c3C)c(C)o2)cc(OC)c1OC`, which inhibition is on record?
The inhibition was -5.34%.

How did the inhibition turn out when `COc1ccc(N2CCN(c3oc(-c4ccc(COc5cccc(C)c5)o4)nc3C#N)CC2)cc1` was run?
Its inhibition is 2.06%.

With `Cc1ccc(NC(=O)CN(C)S(=O)(=O)c2ccc3[nH]c4c(c3c2)CCCC4)c(Cl)c1` as the molecule, how does the inhibition read?
The inhibition was -1.88%.

`COc1ccccc1CO/N=C/NC(=O)c1c(OC)ccnc1Oc1ccc(F)cc1` was tested. Which inhibition did it give?
Its inhibition is active: 37%.

With `CC(C)Cn1c(=O)c2ccccc2n2c(CCC(=O)NC(C)c3ccccc3)nnc12` (stereo not given) as the molecule, how does the inhibition read?
The inhibition was -7.1%.

For `Cc1cccc(C(=O)NCCN2CCN(c3ccccc3)CC2)c1`, which inhibition is on record?
The inhibition was active: 90.8%.

For `Cc1cc(C)c2nc(N(Cc3cccnc3)C(=O)c3cccs3)sc2c1`, which inhibition is on record?
Its inhibition is 4.96%.

Which inhibition does the source give for `CCNS(=O)(=O)c1ccc(NC(=O)Nc2cccc(C(F)(F)F)c2)cc1` here?
The inhibition was active: 38.4%.

With `Cc1ccc(Cn2c(CN3CCC(C(=O)NCCc4ccccc4)CC3)cc3ccccc32)cc1` as the molecule, how does the inhibition read?
The inhibition was -3.62%.

Which inhibition does the source give for `CC(C)Sc1ncc(Cl)c(C(=O)N(Cc2ccc(N(C)C)cc2)C2CCS(=O)(=O)C2)n1` (stereo not given) here?
The inhibition was 28.2%.

With `CCc1nn(CC(=O)Nc2ccc(N(CC)CC)cc2C)c(=O)c2cc3sccc3n12` as the molecule, how does the inhibition read?
Its inhibition is -0.0834%.

`CCN1CCN(c2oc(-c3ccccc3)nc2S(=O)(=O)c2ccc(C)cc2)CC1` was tested. Which inhibition did it give?
Its inhibition is active: 47.2%.

Which inhibition does the source give for `N#Cc1ccc(C(=O)Nc2ccc3c(c2)N(C2CCCC2)C(=O)c2ccccc2S3)cc1` here?
Its inhibition is 7.34%.

`Cc1nn(-c2ccc(N3CCCC3)nn2)c(C)c1CCC(=O)Nc1ccc(F)c(Cl)c1` was tested. Which inhibition did it give?
The inhibition was 7.64%.

Which inhibition does the source give for `O=C(NCCc1nc2ccccc2n1Cc1ccc(Cl)cc1Cl)c1ccco1` here?
The inhibition was 3.5%.

Which inhibition does the source give for `CCn1ccc2c(OCC(=O)NCc3ccc(F)cc3)cccc2c1=O` here?
Its inhibition is 16.1%.

With `Cc1ccc(-n2c(=O)c3c(cnn3C)n(Cc3ccccc3F)c2=O)cc1` as the molecule, how does the inhibition read?
The inhibition was 1.69%.

`Cn1c2ccccc2c2cnn(CC(=O)Nc3ccccc3C(F)(F)F)c(=O)c21` was tested. Which inhibition did it give?
The inhibition was -0.721%.

How did the inhibition turn out when `Cc1ccccc1-c1noc(-c2ccc(N3CCOCC3)c([N+](=O)[O-])c2)n1` was run?
The inhibition was -20.9%.

With `CCn1cc(S(=O)(=O)c2ccccc2)c(=O)c2cc(F)c(N3CCN(c4ccccc4)CC3)cc21` as the molecule, how does the inhibition read?
The inhibition was -2.41%.

With `CCN(CC)C(=O)c1sc2c(c1C)c(=O)n(-c1ccc(OC)cc1OC)c(=O)n2CC(=O)c1ccc(Cl)cc1` as the molecule, how does the inhibition read?
The inhibition was -14.6%.

With `Nc1cc(Cl)nnc1Cl` as the molecule, how does the inhibition read?
Its inhibition is active: 35.8%.

With `CCOc1ccc(N(C(C)C(=O)Nc2cc(Cl)ccc2OC)S(C)(=O)=O)cc1` (stereo not given) as the molecule, how does the inhibition read?
The inhibition was 5.16%.

`COc1cc(NC(=O)c2oc3c(c2C)-c2nn(Cc4cccc(Cl)c4)cc2CC3)cc(OC)c1` was tested. Which inhibition did it give?
The inhibition was 1.16%.

With `O=C(Nc1ccc(OC(F)(F)F)cc1)C1CCN(S(=O)(=O)c2cccs2)CC1` as the molecule, how does the inhibition read?
Its inhibition is -9.43%.

`COc1cc(NC(=O)COCc2cc(-c3ccc4c(c3)OCO4)on2)cc(OC)c1` was tested. Which inhibition did it give?
The inhibition was -12.6%.

With `COc1ccc(CCN2C(=O)NC(NS(=O)(=O)c3ccc(NC(C)=O)cc3)(C(F)(F)F)C2=O)cc1OC` (stereo not given) as the molecule, how does the inhibition read?
The inhibition was -8.7%.

How did the inhibition turn out when `CC(=O)Nc1ccc2nc(SCCOc3cc(C)cc(C)c3)sc2c1` was run?
Its inhibition is -2.27%.

How did the inhibition turn out when `CC(=O)N1c2ccc(S(=O)(=O)NCC3CCC(C(=O)Nc4cc(C)ccc4C)CC3)cc2CC1C` (stereo not given) was run?
Its inhibition is -4.14%.

With `COc1cc(NC(=O)c2c(C)oc3c2C2=NCCN2C=N3)cc(OC)c1OC` as the molecule, how does the inhibition read?
Its inhibition is 2.95%.

For `CCc1ccc(-c2nn(CC(=O)NCc3ccccc3)c3c2cnc2ccc(F)cc23)cc1`, which inhibition is on record?
The inhibition was 8.94%.

For `COc1ccc(OCC(=O)NCc2ccc3c(c2)CCN3C(=O)c2ccc(F)cc2)cc1`, which inhibition is on record?
The inhibition was -20.6%.

`O=C(CN1CCN(c2ccccc2O)CC1)NC(c1ccccc1)c1ccccc1` was tested. Which inhibition did it give?
Its inhibition is active: 64.1%.

How did the inhibition turn out when `CCC1CCCCN1CCCNC(=O)c1cc2c(=O)oc3ccc(C)cc3c2s1` (stereo not given) was run?
Its inhibition is active: 35.5%.

For `CCN(CC)S(=O)(=O)c1ccc(C(=O)N2CC(=O)Nc3ccc(F)cc3C2c2ccccc2)cc1` (stereo not given), which inhibition is on record?
Its inhibition is -2.84%.

How did the inhibition turn out when `CC(C)(C)OC(=O)N1CCC(c2c(C(=O)NCCc3ccccc3)cnn2-c2ccc(F)cc2)CC1` was run?
The inhibition was 1.95%.

Which inhibition does the source give for `O=C(C1CCN(S(=O)(=O)c2ccc(Br)s2)CC1)N1CCN(c2ccccc2)CC1` here?
The inhibition was -12.7%.

Which inhibition does the source give for `O=C1/C(=C/c2ccc(F)cc2)SC(=S)N1CCCC(=O)N1CCCCC1CCO` (stereo not given) here?
Its inhibition is active: 31.6%.

`CCc1ccccc1NC(=O)C1(C)Cc2ccccc2C(=O)O1` (stereo not given) was tested. Which inhibition did it give?
The inhibition was -1.55%.

How did the inhibition turn out when `O=S(=O)(NCC(c1cccs1)S(=O)(=O)c1ccccc1)c1ccc(F)c(C(F)(F)F)c1` (stereo not given) was run?
The inhibition was -2.74%.

`COc1ccc(-c2[nH]c(-c3cccc(OC)c3)nc2SCC(=O)NC2CCCC2)cc1` was tested. Which inhibition did it give?
Its inhibition is 10.5%.

With `CCN(Cc1ccccc1)S(=O)(=O)c1cc(C(=O)Nc2cc(Cl)cc(Cl)c2)ccc1F` as the molecule, how does the inhibition read?
The inhibition was -3.31%.

For `CC(C)(C)C1CCc2c(sc(NC(=O)c3ccc(Cl)cc3)c2C(=O)NCc2ccco2)C1` (stereo not given), which inhibition is on record?
Its inhibition is 1.91%.

`COc1ccccc1N1CCN(c2ncnc3c2cnn3-c2cccc(Cl)c2)CC1` was tested. Which inhibition did it give?
The inhibition was 8.91%.

For `COc1ccc(-c2cn3nc(N4CCCC(C(=O)Nc5cc(C)cc(C)c5)C4)sc3n2)cc1` (stereo not given), which inhibition is on record?
The inhibition was -6.89%.

For `CCCc1cc(C(=O)Nc2c(C)nn(Cc3c(Cl)cccc3Cl)c2C)no1`, which inhibition is on record?
Its inhibition is 14.3%.

With `COC(=O)c1ccc(OCC2c3cc(OC)c(OC)cc3CCN2C(=O)Cc2ccccc2)cc1` (stereo not given) as the molecule, how does the inhibition read?
Its inhibition is -22.8%.
